# Measurements as given in PubChem BioAssay AID1508642 (National Center for Advancing Translational Sciences (NCATS), 2021).
# About 200 (0.47%) of roughly 43,000 compounds were called active. Not shown: some 12% with an inconclusive outcome. Calls come from the whole dose curve; as a rule, active = well fitted cell-killing curve with a large enough effect; inconclusive = small, poorly fitted or top-dose-only effect, or effect the other way; inactive = flat fitted curve, though single readings scatter. This is one part of the list.
# Experiment: Cell viability qHTS assay in S16 Pmp22-F2sN cells; note: nearly all actives have a fitted effect of over 65% in size
# Conditions: S16 Pmp22-F2sN Schwann cells (luciferase reporters placed in the Pmp22 gene) viability, CellTiter-Glo, 24 h; series mostly up to 57.5 µM; activity change, negative = cytotoxicity: at the top concentration
# Summary of the method: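 Luminescence from CellTiter-Glo, read by CCD camera after a 15 min room-temperature incubation, served as the viability signal. Reporter Schwann cells (S16 Pmp22-F2sN) had been treated with pin-transferred compounds for 24 h at 37C.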
# % is set by controls: 0 for no effect and ±100 for the full control effect.
row,Compound,"activity change, negative = cytotoxicity"
1,CCOc1ccc(NC(=O)c2noc3c2CSc2ccccc2-3)cc1,inactive: 2.14%
2,COc1ccc(-n2c(SCC(=O)NCc3ccccc3)nc3n[nH]c(C)c3c2=N)cc1,inactive: -17.4%
3,CCCn1c(=O)c2sccc2n2c(CCCC(=O)Nc3ccccc3F)nnc12,inactive: 11.3%
4,CN(C(=O)c1oc(=O)c2ccccc2c1-c1ccccc1)c1cccc(Cl)c1,inactive: -21.2%
5,COc1cccc(N2CCN(C(=O)Cn3ncc4c(=O)oc5ccccc5c43)CC2)c1,inactive: 18.5%
6,O=C1CC(c2cccc(F)c2)c2c(n3ncnc3[nH]c2=O)N1 (stereo not drawn),inactive: 3.86%
7,CCOC(=O)Cn1c(=O)n(C2CCCCC2)c2nc(-c3cccc(C)c3)nc(C(N)=O)c21,inactive: 9.64%
8,O=C(CSc1ccc(-c2cccs2)nn1)Nc1cccc(F)c1,inactive: -23.6%
9,COc1ccccc1N1CCN(c2ncnc3onc(C)c23)CC1,inactive: 1.36%
10,COc1ccc(-c2cc(C)no2)cc1S(=O)(=O)N1CC(C)Oc2ccccc21 (stereo not drawn),inactive: -0.192%
11,COc1ccc(CNC(=O)C(C)n2nc(C)c3sc4ccccc4c3c2=O)cc1OC (stereo not drawn),inactive: -5.22%
12,CCOC(=O)c1cc2c(=O)n3ccccc3nc2n(CC2CCCO2)c1=NC(=O)c1ccccc1F (stereo not drawn),inactive: -2.9%
13,Cc1ccccc1NC(=O)CSc1nnc(-c2cccc(Cl)c2)o1,inactive: 14.3%
14,O=C(CSc1n[nH]c(-c2ccccc2)n1)NCCc1ccccc1,inactive: 5.07%
15,COc1cccc(CNC(=O)CCS(=O)(=O)c2cc3c4c(c2)CCN4C(=O)CC3)c1,inactive: -16.2%
16,COc1ccc(N(CC(=O)N2CCN(c3ccc(F)cc3)CC2)S(=O)(=O)c2c(C)nn(C)c2C)cc1,inactive: -4.25%
17,CC(=O)c1c(C)oc2ccc(N(C(=O)c3ccncc3)S(=O)(=O)c3ccc(F)cc3C)cc12,inactive: -8.6%
18,Cc1cccc(C(=O)Nc2sc3c(c2C(=O)O)CCCC3)c1,inactive: 4.22%
19,Cc1cc(C)cc(NC(=O)CN(C)S(=O)(=O)c2ccc3c(c2)CCC(=O)N3)c1,inactive: 11.4%
20,CCOC(=O)C(CC)Sc1nnc2[nH]c(=O)cc(C)n12 (stereo not drawn),inactive: 9.74%
21,COc1cccc(CNC(=O)CC(c2ccc(C)cc2)N2Cc3ccccc3C2=O)c1 (stereo not drawn),inactive: 3.22%

row,Compound,"activity change, negative = cytotoxicity"
1,Cc1ccc(CNC(=O)c2cnn(-c3ccc(F)cc3F)c2C2CCN(C(=O)OC(C)(C)C)CC2)cc1,inactive: -11.4%
2,CCCOc1ccc(C2C(=O)N(C3CCCCC3)CC(=O)N2CCC2=CCCCC2)cc1OC (stereo not drawn),inactive: 5.14%
3,COc1ccc(NS(=O)(=O)c2ccc3c(c2)n(C)c(=O)c(=O)n3C)cc1Cl,inactive: -14.5%
4,COc1ccc(-n2cc(C(=O)Nc3ccccc3C#N)c3ccccc3c2=O)cc1,inactive: -1.17%
5,CNc1nc(Oc2ccc(=O)[nH]n2)nc(N2CCOCC2)n1,inactive: 1.73%
6,COc1ccccc1NC(=O)C1=C(C)Nc2ncnn2C1c1sccc1C (stereo not drawn),inactive: 3.02%
7,Cc1ccccc1CNC(=O)Cn1cc2c(n1)-c1c(oc(C(=O)N3CCCC3)c1C)CC2,inactive: 0.202%
8,COc1ccc(OC)c(CNC(=O)CCC(=O)N2Cc3ccccc3Oc3ncccc32)c1,inactive: -16.3%
9,COc1ccc2nc(NC(=O)c3nc(SCc4cccc(C)c4)ncc3Cl)sc2c1,inactive: 3.67%
10,COc1ccc(N2CC(NC(=O)C3CCCC3)CC2=O)cc1 (stereo not drawn),inactive: 0.402%
11,O=C(c1cccc([N+](=O)[O-])c1)N1CCN(CCc2ccncc2)CC1,inactive: -2.56%
12,COc1cccc(-n2cc(C(=O)Nc3ccccc3C(N)=O)c3ccccc3c2=O)c1,inactive: 5.52%
13,Cc1nc(SCCOc2ccc(Cl)cc2)[nH]c(=O)c1Cc1ccccc1,inactive: 17.5%
14,CCOc1ccc(NC(=O)Cn2c(=O)n(Cc3ccccc3)c(=O)c3c4c(sc32)CN(C(C)=O)CC4)cc1,inactive: -3.26%
15,Cc1ccc(NC(=O)CN2C(=O)COc3ccc(S(=O)(=O)N4CCOCC4)cc32)c(Cl)c1,inactive: 11.7%
16,C=Cc1ccc(Cn2c(C(=O)OC)cc3sc(C)cc32)cc1,inactive: -4.97%
17,COc1cccc(NC(=O)CC2Oc3ccccc3NC2=O)c1 (stereo not drawn),inactive: 15.4%
18,CC(=O)c1cccc(Nc2ncnc3c2cnn3-c2cccc(Cl)c2)c1,inactive: 11.8%
19,COc1cccc(NC(=O)c2oc3ccc(S(=O)(=O)N4CCOCC4)cc3c2C)c1,inactive: -21.9%
20,CC(C)OCCCNC(=O)CN1C(=O)CSc2ccc(S(=O)(=O)N3CCOCC3)cc21,inactive: 5.85%
21,CC1CCCCN1S(=O)(=O)c1ccc2[nH]c(=O)cc(C(=O)NCCc3ccc(Cl)cc3)c2c1 (stereo not drawn),inactive: 5.28%

row,Compound,"activity change, negative = cytotoxicity"
1,CCc1ccc(Nc2nc3c(S(=O)(=O)c4cccc(Cl)c4)nnn3c3ccsc23)cc1,inactive: 2.49%
2,CC(=O)Nc1c(C(=O)Nc2ccccc2F)oc2ccccc12,inactive: -1.31%
3,Cc1ccc(Cl)cc1N1CCN(C(=O)C(C)n2ncn3cccc3c2=O)CC1 (stereo not drawn),inactive: -17.7%
4,CCCCN(CCCC)C(=O)c1cc2c(=O)n3ccccc3nc2s1,inactive: -1.05%
5,CCNC(=O)c1c(NC(=O)c2cc(=O)c3ccc(C)c(C)c3o2)sc2c1CCCC2,inactive: 8.19%
6,Cc1cccc(N2CCN(S(=O)(=O)c3ccc(F)c(C(=O)Nc4cccc(Cl)c4C)c3)CC2C)c1 (stereo not drawn),inactive: -1.75%
7,Cc1cc(C)c(S(=O)(=O)NCC(c2ccco2)N2CCN(c3ccccc3)CC2)c(C)c1 (stereo not drawn),inactive: -12%
8,Cc1ccc(-n2nc3c(=O)n(CCCC(=O)NCc4ccc(F)cc4)nc(C)c3c2C)cc1,inactive: 0.571%
9,Cc1cc(C(F)(F)F)c2c(N)c(C(=O)Nc3c(Cl)cccc3Cl)sc2n1,inactive: -28.5%
10,O=C(CN1CCN(Cc2ccc(F)cc2)C1=O)NCc1ccccc1,inactive: 2.63%
11,Cc1ccc2c(c1)-c1onc(C(=O)N3CCN(c4cccc(C)c4C)CC3)c1CO2,inactive: 10.1%
12,Cc1nn(-c2ccccc2)c2c1cc1c(=O)[nH]c(=O)nc-1n2-c1cccc(C(F)(F)F)c1,inactive: -0.185%
13,COc1ccc(Nc2ncnc3c2cnn3C)c(OC)c1,inactive: -0.218%
14,CCCC12CN3CC(C)(CN(C1)C3c1ccc(CC)cc1)C2=O (stereo not drawn),inactive: 12.4%
15,CCc1ccc(OCC(=O)NCC(c2ccc(Cl)cc2)N2CCOCC2)cc1 (stereo not drawn),inactive: -6.82%
16,CC(C)c1ccc(NC(=O)c2cc3c(=O)oc4ccccc4c3s2)cc1,inactive: 10.1%
17,CCOc1ccc(CCNC(=O)c2cc3c(=O)n(C)c4ccccc4c3s2)cc1OCC,inactive: 13.6%
18,COc1ccccc1NC(=O)c1sc2cccc(Cl)c2c1Cl,inactive: 0.26%
19,COc1ccc(N2CCN(C(CNC(=O)C(=O)NCc3ccc(C)cc3)c3cccnc3)CC2)cc1 (stereo not drawn),inactive: -24.9%
20,Cc1ccccc1-c1nc(NC(=O)CSc2ncnc3sc4c(c23)CCCC4)ns1,inactive: -0.535%
21,O=C(CC(c1cccs1)N1Cc2ccccc2C1=O)Nc1ccccc1 (stereo not drawn),inactive: -19.1%
